Holding throughout (assay): FRET or BRET; BRET in live HEK293 cells transfected with pairs of N-terminal Rluc and YFP fusions, 96-well plates; EnduRen substrate 48 h after transfection; Rluc-NLS and YFP-NLS as controls
Background: BRET reads energy transfer from a luciferase to a nearby fluorophore.

Chains of the proteins cited; added tags and fusions are not shown.
UniProt Q6W2J9: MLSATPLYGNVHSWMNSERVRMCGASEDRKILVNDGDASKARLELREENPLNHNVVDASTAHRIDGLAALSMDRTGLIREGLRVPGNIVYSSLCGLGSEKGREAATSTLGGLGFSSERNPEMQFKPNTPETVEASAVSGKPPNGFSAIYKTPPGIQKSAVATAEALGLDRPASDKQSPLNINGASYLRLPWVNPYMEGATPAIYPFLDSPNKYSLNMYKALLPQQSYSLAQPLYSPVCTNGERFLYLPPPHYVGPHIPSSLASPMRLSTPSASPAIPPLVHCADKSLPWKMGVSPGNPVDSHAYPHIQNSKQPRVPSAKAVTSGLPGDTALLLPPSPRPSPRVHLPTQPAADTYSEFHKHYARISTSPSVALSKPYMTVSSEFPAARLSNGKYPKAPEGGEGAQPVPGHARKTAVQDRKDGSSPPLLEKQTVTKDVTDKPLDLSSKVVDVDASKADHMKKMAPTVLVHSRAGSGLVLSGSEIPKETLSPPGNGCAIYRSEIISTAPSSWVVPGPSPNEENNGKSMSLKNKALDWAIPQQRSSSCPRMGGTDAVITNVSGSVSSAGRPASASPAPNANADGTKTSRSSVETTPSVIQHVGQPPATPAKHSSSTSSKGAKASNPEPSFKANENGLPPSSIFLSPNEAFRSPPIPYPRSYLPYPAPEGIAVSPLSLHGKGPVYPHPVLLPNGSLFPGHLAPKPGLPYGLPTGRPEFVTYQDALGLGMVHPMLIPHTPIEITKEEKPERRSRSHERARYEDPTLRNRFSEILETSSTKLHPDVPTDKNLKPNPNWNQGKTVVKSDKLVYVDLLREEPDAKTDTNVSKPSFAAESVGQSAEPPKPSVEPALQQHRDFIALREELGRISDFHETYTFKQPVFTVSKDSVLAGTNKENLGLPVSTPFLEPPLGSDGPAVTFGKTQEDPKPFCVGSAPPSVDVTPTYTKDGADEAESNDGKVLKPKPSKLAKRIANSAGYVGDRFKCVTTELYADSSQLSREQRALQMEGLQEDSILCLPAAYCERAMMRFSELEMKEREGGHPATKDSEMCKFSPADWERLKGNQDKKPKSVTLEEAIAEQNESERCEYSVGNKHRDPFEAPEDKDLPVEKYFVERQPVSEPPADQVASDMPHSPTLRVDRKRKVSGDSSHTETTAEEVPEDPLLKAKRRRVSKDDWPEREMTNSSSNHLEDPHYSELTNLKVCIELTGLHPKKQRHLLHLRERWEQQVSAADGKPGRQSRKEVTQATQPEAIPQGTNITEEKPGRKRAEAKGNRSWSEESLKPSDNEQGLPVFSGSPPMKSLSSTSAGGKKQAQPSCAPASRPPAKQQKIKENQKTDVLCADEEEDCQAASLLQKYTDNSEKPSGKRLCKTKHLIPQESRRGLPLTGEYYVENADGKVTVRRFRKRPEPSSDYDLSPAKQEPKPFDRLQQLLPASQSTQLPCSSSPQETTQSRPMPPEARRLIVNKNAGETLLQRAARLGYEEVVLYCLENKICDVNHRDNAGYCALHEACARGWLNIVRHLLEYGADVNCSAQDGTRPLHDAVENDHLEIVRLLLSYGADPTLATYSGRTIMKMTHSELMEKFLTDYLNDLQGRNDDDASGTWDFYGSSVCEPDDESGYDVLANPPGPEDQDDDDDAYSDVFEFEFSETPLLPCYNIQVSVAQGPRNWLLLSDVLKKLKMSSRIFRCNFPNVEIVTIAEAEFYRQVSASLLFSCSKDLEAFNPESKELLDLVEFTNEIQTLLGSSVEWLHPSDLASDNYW
UniProt Q8WXI9: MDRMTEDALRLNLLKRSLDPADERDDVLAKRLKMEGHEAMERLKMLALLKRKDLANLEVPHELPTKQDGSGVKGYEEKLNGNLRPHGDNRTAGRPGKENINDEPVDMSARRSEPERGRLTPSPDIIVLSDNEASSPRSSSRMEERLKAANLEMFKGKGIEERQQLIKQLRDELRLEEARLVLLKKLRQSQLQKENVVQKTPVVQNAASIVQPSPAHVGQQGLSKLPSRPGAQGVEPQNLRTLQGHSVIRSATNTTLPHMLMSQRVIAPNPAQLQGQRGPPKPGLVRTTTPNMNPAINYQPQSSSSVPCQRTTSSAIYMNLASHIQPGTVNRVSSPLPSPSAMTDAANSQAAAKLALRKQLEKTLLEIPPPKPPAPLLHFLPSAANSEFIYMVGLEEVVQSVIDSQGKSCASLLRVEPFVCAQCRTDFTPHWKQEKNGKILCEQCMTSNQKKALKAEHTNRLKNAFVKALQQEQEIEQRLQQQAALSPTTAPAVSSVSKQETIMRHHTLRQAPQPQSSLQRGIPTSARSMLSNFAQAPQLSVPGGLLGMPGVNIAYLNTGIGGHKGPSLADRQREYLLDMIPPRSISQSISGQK

One assay addresses T1, YFP-TBR1 p.K389E (human) (UniProt Q16650).
T1 sequence: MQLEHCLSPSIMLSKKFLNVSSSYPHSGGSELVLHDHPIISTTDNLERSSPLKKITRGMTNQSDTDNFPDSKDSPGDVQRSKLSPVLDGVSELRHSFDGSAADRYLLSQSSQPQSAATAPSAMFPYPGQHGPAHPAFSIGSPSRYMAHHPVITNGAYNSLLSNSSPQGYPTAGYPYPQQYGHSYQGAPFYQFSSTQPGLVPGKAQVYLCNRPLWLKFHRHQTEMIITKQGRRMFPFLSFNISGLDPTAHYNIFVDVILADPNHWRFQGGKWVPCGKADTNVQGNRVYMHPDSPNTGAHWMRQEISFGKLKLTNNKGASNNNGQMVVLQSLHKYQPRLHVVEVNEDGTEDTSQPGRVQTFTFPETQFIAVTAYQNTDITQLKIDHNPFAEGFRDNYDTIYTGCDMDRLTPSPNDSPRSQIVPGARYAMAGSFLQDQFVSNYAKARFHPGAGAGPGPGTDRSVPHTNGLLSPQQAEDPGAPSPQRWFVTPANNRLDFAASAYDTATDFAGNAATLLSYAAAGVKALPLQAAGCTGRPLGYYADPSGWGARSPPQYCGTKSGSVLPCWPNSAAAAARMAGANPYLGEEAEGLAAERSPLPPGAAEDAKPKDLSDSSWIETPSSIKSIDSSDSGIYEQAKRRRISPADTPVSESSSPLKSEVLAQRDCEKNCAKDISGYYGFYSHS

A further assay has as its target T2, YFP-TBR1 p.V356M (human) (UniProt Q16650).
T2 sequence: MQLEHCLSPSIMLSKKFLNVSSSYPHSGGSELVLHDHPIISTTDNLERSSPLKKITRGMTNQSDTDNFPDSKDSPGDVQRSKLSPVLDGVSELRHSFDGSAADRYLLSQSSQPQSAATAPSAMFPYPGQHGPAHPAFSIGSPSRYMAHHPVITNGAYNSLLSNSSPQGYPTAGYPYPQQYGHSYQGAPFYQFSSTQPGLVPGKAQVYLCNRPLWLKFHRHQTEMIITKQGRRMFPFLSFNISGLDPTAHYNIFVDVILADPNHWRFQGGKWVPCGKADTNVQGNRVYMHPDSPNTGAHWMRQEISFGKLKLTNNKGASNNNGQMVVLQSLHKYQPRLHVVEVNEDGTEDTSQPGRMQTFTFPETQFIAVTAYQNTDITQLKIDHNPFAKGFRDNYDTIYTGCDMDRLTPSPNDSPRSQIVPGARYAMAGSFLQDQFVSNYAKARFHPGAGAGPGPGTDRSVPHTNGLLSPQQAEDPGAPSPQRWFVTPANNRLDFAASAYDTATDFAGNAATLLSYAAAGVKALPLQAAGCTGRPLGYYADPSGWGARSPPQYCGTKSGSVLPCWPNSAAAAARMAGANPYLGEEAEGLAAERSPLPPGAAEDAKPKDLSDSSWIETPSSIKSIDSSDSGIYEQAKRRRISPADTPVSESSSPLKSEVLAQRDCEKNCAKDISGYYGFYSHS

For a further assay, the target named is T3, YFP-TBR1 p.S568* (human) (UniProt Q16650).
T3 sequence: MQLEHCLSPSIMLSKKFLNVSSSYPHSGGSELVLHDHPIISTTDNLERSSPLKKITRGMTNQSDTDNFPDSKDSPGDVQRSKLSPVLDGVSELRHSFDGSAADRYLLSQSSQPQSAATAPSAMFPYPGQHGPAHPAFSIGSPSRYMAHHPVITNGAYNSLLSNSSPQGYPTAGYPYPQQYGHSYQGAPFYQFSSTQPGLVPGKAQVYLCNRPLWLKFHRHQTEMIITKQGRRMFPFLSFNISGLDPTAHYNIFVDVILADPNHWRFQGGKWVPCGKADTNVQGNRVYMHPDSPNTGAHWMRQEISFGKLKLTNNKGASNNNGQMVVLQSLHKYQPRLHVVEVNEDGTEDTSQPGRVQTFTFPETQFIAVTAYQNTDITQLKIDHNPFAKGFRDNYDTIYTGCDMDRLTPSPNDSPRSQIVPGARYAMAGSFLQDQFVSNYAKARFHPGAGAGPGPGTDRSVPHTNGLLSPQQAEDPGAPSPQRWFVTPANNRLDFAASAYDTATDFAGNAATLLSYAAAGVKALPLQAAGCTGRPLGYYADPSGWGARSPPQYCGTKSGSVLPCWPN

The next assay addresses T4, YFP-TBR1 (human) (UniProt Q16650).
T4 sequence: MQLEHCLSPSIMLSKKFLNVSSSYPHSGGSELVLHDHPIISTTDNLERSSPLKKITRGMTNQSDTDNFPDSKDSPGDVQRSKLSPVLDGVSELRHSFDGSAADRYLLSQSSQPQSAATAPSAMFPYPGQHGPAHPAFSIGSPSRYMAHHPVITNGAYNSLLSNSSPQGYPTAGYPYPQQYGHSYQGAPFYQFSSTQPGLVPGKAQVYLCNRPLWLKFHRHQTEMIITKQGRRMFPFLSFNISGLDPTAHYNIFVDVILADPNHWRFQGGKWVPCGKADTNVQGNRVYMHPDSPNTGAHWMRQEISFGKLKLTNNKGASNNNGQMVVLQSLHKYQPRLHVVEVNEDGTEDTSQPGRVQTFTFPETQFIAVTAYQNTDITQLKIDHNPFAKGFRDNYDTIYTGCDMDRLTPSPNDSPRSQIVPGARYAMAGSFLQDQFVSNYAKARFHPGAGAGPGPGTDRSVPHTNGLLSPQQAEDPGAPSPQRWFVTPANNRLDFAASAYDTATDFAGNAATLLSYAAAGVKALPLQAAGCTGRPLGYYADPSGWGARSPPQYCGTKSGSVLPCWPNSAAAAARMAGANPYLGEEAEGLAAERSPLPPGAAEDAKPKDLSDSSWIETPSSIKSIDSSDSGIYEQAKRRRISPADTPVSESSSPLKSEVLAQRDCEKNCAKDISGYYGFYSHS

Results are given in words; binding and its absence hold for the method and conditions named. In cells and extracts the contact can be indirect. Some entries that bind do so weakly or less than the wild type. Sequences can lack the tags named with a protein.

Rluc-BCOR (from UniProt Q6W2J9 1-1755): the binding result in the assay with YFP-TBR1 p.K389E (human), with YFP-TBR1 p.V356M (human), with YFP-TBR1 p.S568* (human) and in the assay with YFP-TBR1 (human) was “binds” in each case.

With “Rluc-GATAD2B (from UniProt Q8WXI9 1-593)”, the binding result with YFP-TBR1 p.K389E (human), with YFP-TBR1 p.V356M (human), with YFP-TBR1 p.S568* (human) and with YFP-TBR1 (human) was “binds” in each case.

B1: Rluc-ADNP (protein, UniProt Q9H2P0 1-1102)
chain: MFQLPVNNLGSLRKARKTVKKILSDIGLEYCKEHIEDFKQFEPNDFYLKNTTWEDVGLWDPSLTKNQDYRTKPFCCSACPFSSKFFSAYKSHFRNVHSEDFENRILLNCPYCTFNADKKTLETHIKIFHAPNASAPSSSLSTFKDKNKNDGLKPKQADSVEQAVYYCKKCTYRDPLYEIVRKHIYREHFQHVAAPYIAKAGEKSLNGAVPLGSNAREESSIHCKRCLFMPKSYEALVQHVIEDHERIGYQVTAMIGHTNVVVPRSKPLMLIAPKPQDKKSMGLPPRIGSLASGNVRSLPSQQMVNRLSIPKPNLNSTGVNMMSSVHLQQNNYGVKSVGQGYSVGQSMRLGLGGNAPVSIPQQSQSVKQLLPSGNGRSYGLGSEQRSQAPARYSLQSANASSLSSGQLKSPSLSQSQASRVLGQSSSKPAAAATGPPPGNTSSTQKWKICTICNELFPENVYSVHFEKEHKAEKVPAVANYIMKIHNFTSKCLYCNRYLPTDTLLNHMLIHGLSCPYCRSTFNDVEKMAAHMRMVHIDEEMGPKTDSTLSFDLTLQQGSHTNIHLLVTTYNLRDAPAESVAYHAQNNPPVPPKPQPKVQEKADIPVKSSPQAAVPYKKDVGKTLCPLCFSILKGPISDALAHHLRERHQVIQTVHPVEKKLTYKCIHCLGVYTSNMTASTITLHLVHCRGVGKTQNGQDKTNAPSRLNQSPSLAPVKRTYEQMEFPLLKKRKLDDDSDSPSFFEEKPEEPVVLALDPKGHEDDSYEARKSFLTKYFNKQPYPTRREIEKLAASLWLWKSDIASHFSNKRKKCVRDCEKYKPGVLLGFNMKELNKVKHEMDFDAEWLFENHDEKDSRVNASKTADKKLNLGKEDDSSSDSFENLEEESNESGSPFDPVFEVEPKISNDNPEEHVLKVIPEDASESEEKLDQKEDGSKYETIHLTEEPTKLMHNASDSEVDQDDVVEWKDGASPSESGPGSQQVSDFEDNTCEMKPGTWSDESSQSEDARSSKPAAKKKATMQGDREQLKWKNSSYGKVEGFWSKDQSQWKNASENDERLSNPQIEWQNSTIDSEDGEQFDNMTDGVAEPMHGSLAGVKLSSQQA
As to B1, the binding entry in the assay with YFP-TBR1 p.K389E (human) is “no binding”; with YFP-TBR1 p.V356M (human), “binds”; in the assay with YFP-TBR1 p.S568* (human), “binds”; with YFP-TBR1 (human), “binds”.

B2: Rluc-NR2F1 (protein, UniProt P10589 1-423)
chain: MAMVVSSWRDPQDDVAGGNPGGPNPAAQAARGGGGGAGEQQQQAGSGAPHTPQTPGQPGAPATPGTAGDKGQGPPGSGQSQQHIECVVCGDKSSGKHYGQFTCEGCKSFFKRSVRRNLTYTCRANRNCPIDQHHRNQCQYCRLKKCLKVGMRREAVQRGRMPPTQPNPGQYALTNGDPLNGHCYLSGYISLLLRAEPYPTSRYGSQCMQPNNIMGIENICELAARLLFSAVEWARNIPFFPDLQITDQVSLLRLTWSELFVLNAAQCSMPLHVAPLLAAAGLHASPMSADRVVAFMDHIRIFQEQVEKLKALHVDSAEYSCLKAIVLFTSDACGLSDAAHIESLQEKSQCALEEYVRSQYPNQPSRFGKLLLRLPSLRTVSSSVIEQLFFVRLVGKTPIETLIRDMLLSGSSFNWPYMSIQCS
As for B2, the binding result in the assay with YFP-TBR1 p.K389E (human) is reported as “no binding”; in the assay with YFP-TBR1 p.V356M (human), “binds”; in the assay with YFP-TBR1 p.S568* (human) it was “binds”; in the assay with YFP-TBR1 (human) it was “binds”.

B3: Rluc-NR2F2 (protein, UniProt P24468 1-414)
chain: MAMVVSTWRDPQDEVPGSQGSQASQAPPVPGPPPGAPHTPQTPGQGGPASTPAQTAAGGQGGPGGPGSDKQQQQQHIECVVCGDKSSGKHYGQFTCEGCKSFFKRSVRRNLSYTCRANRNCPIDQHHRNQCQYCRLKKCLKVGMRREAVQRGRMPPTQPTHGQFALTNGDPLNCHSYLSGYISLLLRAEPYPTSRFGSQCMQPNNIMGIENICELAARMLFSAVEWARNIPFFPDLQITDQVALLRLTWSELFVLNAAQCSMPLHVAPLLAAAGLHASPMSADRVVAFMDHIRIFQEQVEKLKALHVDSAEYSCLKAIVLFTSDACGLSDVAHVESLQEKSQCALEEYVRSQYPNQPTRFGKLLLRLPSLRTVSSSVIEQLFFVRLVGKTPIETLIRDMLLSGSSFNWPYMAIQ
Regarding B3, the binding entry with YFP-TBR1 p.K389E (human) is reported as “no binding”; with YFP-TBR1 p.V356M (human), “binds”; with YFP-TBR1 p.S568* (human), “binds”; with YFP-TBR1 (human), “binds”.

These data come from article PMC10117376.
